Assay results published in PubChem BioAssay AID686979 (National Center for Advancing Translational Sciences (NCATS), 2013).
The whole screen tested about 420,000 compounds, of which about 50,000 (12%) were called active. Inconclusive means that the source gave no clear call. Such entries were picked first, then a sample of the others. The call rests on the fitted dose curve; in most records, active means well fitted inhibition curve with a large enough effect; inconclusive means small, poorly fitted or top-dose-only effect; inactive means flat fitted curve, though single readings scatter. No potency is given beside an inconclusive call; the fits are too rough.

Test: qHTS for Inhibitors of human tyrosyl-DNA phosphodiesterase 1 (TDP1): qHTS in cells in presence of CPT; further: nearly all actives have a fitted effect of over 55% in size
Conditions: chicken DT40 Tdp1-/-;hTDP1 cells + 20 nM CPT, ATP luminescence, 48 h; activity change, negative = growth inhibition: at 46.2 µM (top of the series)
Summary of the method: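 Chicken DT40 Tdp1-/- cells complemented with human TDP1, 400 cells/well, exposed to compounds plus 20 nM camptothecin for at least 48 h at 37 C; viability read as ATP content by CellTiter-Glo luminescence.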
On the % scale 0 is the no-effect control and ±100 the full control effect; potency means the concentration at half of the fitted maximal effect; tags describe the fitted curve by direction and shape.

Compound	Potency	activity change, negative = growth inhibition
COc1cc2c(cc1OC)C(COc1cc(C)cc(C)c1)N(C(=O)COc1ccccc1)CC2 (configuration not stated)	inconclusive [inhibitor, single point]	
COc1ccc(CNC(=O)/C=C/c2ccc(OCCCF)cc2)cc1OC	inconclusive [inhibitor, single point]	
COc1ccc2[nH]c3c(NCCC4=CCCCC4)ncnc3c2c1	active: 2.59 µM	
O=C(Nc1ccc2oc(-c3ccncc3)nc2c1)c1ccc2c(c1)OCCO2	inconclusive [inhibitor, full curve]	
O=C(Nc1ccc(F)cc1)C(c1ccncc1)N1CCN(c2cccc(C(F)(F)F)n2)CC1 (configuration not stated)	inconclusive [inhibitor, partial curve, poor fit]	
Cc1ccccc1CCNC(=O)c1cc2cc(S(=O)(=O)N3CCCCC3)ccc2n1C	active: 10.3 µM	
CC(C)c1ccc(S(=O)(=O)N2CCN(C(=O)C3CCCCC3)CC2)cc1		inconclusive: -30.8% [inhibitor]
O=C(CNC(=O)C1CCCCC1)OCc1cc(=O)oc2ccc3ccccc3c12	inconclusive [inhibitor, full curve, poor fit]	
CCOC(=O)C1=CCN(S(=O)(=O)c2cccc(Cl)c2)C1c1cccc(F)c1 (configuration not stated)	active: 20.6 µM	
Cc1cc(OCC(O)CN2CCc3ccccc3C2)cc(C(C)C)c1 (configuration not stated)	inconclusive [inhibitor, single point]	
COc1ccc(-n2c(=O)c3ccccc3n(CC(=O)NCCc3ccc(OC)c(OC)c3)c2=O)cc1	inactive	
COc1ccc(C(=O)Nc2cc3c(cc2OC)CCCC3)cc1Br	inconclusive [inhibitor, single point]	
C/C(=N\Nc1nc2ccccc2[nH]1)c1cc2ccccc2o1	inconclusive [inhibitor, partial curve]	
Cc1nc([N+](=O)[O-])cn1CC(=O)Nc1ccc([N+](=O)[O-])cc1	inactive	
CCOCCCN(Cc1ccco1)S(=O)(=O)c1cc2c(cc1C)NC(=O)CO2	inactive	
COc1ccc(-n2ncc(C(=O)Nc3cccc(C(F)(F)F)c3)c2C2CCN(C(=O)OC(C)(C)C)CC2)cc1	inconclusive [inhibitor, single point]	
NC(=O)CC(NC(=O)Cc1ccc(Cl)cc1)c1ccc(NC2CCCCCCC2)c([N+](=O)[O-])c1 (configuration not stated)	inactive	
C=C1C(=O)[C@]23C[C@H]1CCC2[C@@]1(C)C(C[C@@H]3O)[C@](C)(C(=O)OC)CC[C@@H]1O (some centres not stated)	active: 1.03 µM	
CCOC(=O)CC1(C)Oc2cc(Cl)ccc2N1S(=O)(=O)c1ccc(C)cc1 (configuration not stated)	inconclusive [inhibitor, single point]	
Oc1ccc(NC(=S)N=Nc2c(O)[nH]c3ccccc23)cc1	inconclusive [inhibitor, single point]	
O=C(NCCc1ccc(Cl)cc1)C1CCN(S(=O)(=O)N2CCCCC2)CC1	inconclusive [inhibitor, single point]	
CN(C(=O)c1ccc(NC(=O)Cc2ccc(NC(=O)C3CCN(S(=O)(=O)c4cccc([N+](=O)[O-])c4)CC3)cc2)cc1)C1CCCC1	inconclusive [inhibitor, single point]	
Cc1cc(NC(=O)CSc2nnnn2-c2ccc(C(C)C)cc2)no1	inconclusive [inhibitor, single point]	

Compound	Potency	activity change, negative = growth inhibition
Cc1cccc(NC(=S)N2CCCCC2)c1	inconclusive [inhibitor, partial curve]	
Cc1cccc(N2CCc3c2nc2ccc(Br)cc2c3N)c1	inconclusive [inhibitor, single point]	
COc1cc2c(cc1[N+](=O)[O-])-c1ccccc1C2	inactive	
CCCCc1cc(=O)oc2cc(OS(C)(=O)=O)ccc12	inconclusive [inhibitor, partial curve]	
CCN(CC)c1ccc(NC(=O)CCc2nnc3ccc(N4CCCC4)nn23)c(C)c1	active: 14.6 µM	
CCOc1ccccc1NC(=O)CSc1nnc2ccc(-c3cccnc3)nn12	inconclusive [inhibitor, partial curve, poor fit]	
Cc1ccc2cc(C)c(N3CCN(c4ccc(F)cc4)CC3)nc2c1	inactive	
OC(CNCc1ccc(Cl)cc1)COc1ccccc1 (configuration not stated)	inconclusive [inhibitor, single point]	
OCC[C@H]1C[C@H](O)[C@@H](O)[C@]2(CCCc3ccccc3O2)O1	inactive	
Cc1ccc(C2=Nc3ccccc3N(CC(=O)NCc3ccccc3Cl)C(=O)C2)cc1C	inconclusive [inhibitor, single point]	
O=[N+]([O-])c1cccc(CSC2=NCCN2S(=O)(=O)c2ccccc2)c1	inconclusive [inhibitor, single point]	
CCOC(=O)CN(C(=O)Cn1nnc(-c2ccc(OC)cc2)n1)C(C(=O)NC1CCCC1)c1ccc(F)cc1 (configuration not stated)	inconclusive [inhibitor, partial curve, poor fit]	
O=C(NCCc1ccc(Cl)cc1)c1ccc(S(=O)(=O)N2CCCC2)cc1	inconclusive [inhibitor, partial curve]	
CCCS(=O)(=O)NC(=O)C1(C)CCCN(C(=O)c2ccc(C(F)(F)F)nc2C)C1 (configuration not stated)	inconclusive [inhibitor, full curve, poor fit]	
COc1ccc(C2C(=O)c3ccccc3C2=Nc2ccc(Br)cc2)cc1 (configuration not stated)	inconclusive [inhibitor, full curve]	
C#C[C@]1(OC(C)=O)CCC2C3CCC4=CC(=O)CCC4C3CC[C@]21C (some centres not stated)	active: 0.206 µM	
CCCc1ccc(C(C)NC(=S)NCc2ccc(F)cc2)cc1 (configuration not stated)	inconclusive [inhibitor, single point]	
O=C(Nc1c(C(=O)N2CCN(c3ccccc3)CC2)oc2ccccc12)c1ccco1	inconclusive [inhibitor, single point]	
CCCCOc1ccc(CSC(=N)N)cc1[N+](=O)[O-]	active: 13 µM	
CC[N+](C)(C(=O)O)/C(=C\c1ccccc1)c1ccnc2ccccc12 (configuration not stated)	inconclusive [inhibitor, single point]	
O=C(NC(=S)Nc1ccc(Cc2ccncc2)cc1)c1ccc(F)cc1	inconclusive [inhibitor, single point]	
CC(Sc1ccc(S(=O)(=O)N2CCN(C)CC2)cn1)C(=O)NC1CCCC(C)C1C (configuration not stated)	inconclusive [inhibitor, single point]	
c1ccc2c(N3CCOCC3)nc(-c3ccncc3)nc2c1	inconclusive [inhibitor, single point]	

Compound	Potency	activity change, negative = growth inhibition
CC(C)C1C(=O)N(Cc2cn(CCC3OCCO3)nn2)CCS(=O)(=O)N1Cc1ccc(-c2ccccc2C(F)(F)F)cc1 (configuration not stated)	active: 13 µM	
CS/C(Nc1cc(Cl)ccc1Cl)=C(/C#N)C(=O)c1ccco1	active: 9.2 µM	
Cc1ccc(-c2c(C)sc(NC(=O)C3C4CCC(O4)C3C(=O)O)c2C(=O)OC(C)C)cc1 (configuration not stated)		inconclusive: -32.7% [inhibitor]
C=C(Nc1ccc(OCC)cc1)Nc1ccc(OCC)cc1	inconclusive [inhibitor, single point]	
COc1c(/C=N/NC(=O)[C@H]2C[C@@H]2c2ccccc2)c(CCN(C)C(C)=O)cc2c1OCO2	inactive	
CSc1nc(-c2ccccc2)nc(NC(=O)c2ccccc2)c1C(C)=O	inconclusive [inhibitor, single point]	
Clc1ccc(Cn2nnc3ccccc32)cc1	inactive	
O=C1CN(S(=O)(=O)c2cc(Br)ccc2Br)CCN1	inactive	
CCc1ccccc1N(C1=NCCCS1)S(=O)(=O)c1ccc(C(C)(C)C)cc1	inconclusive [inhibitor, single point]	
O=C1c2cccc3cc([N+](=O)[O-])cc(c23)C(=O)N1/N=C/c1ccc(O)cc1O	inconclusive [inhibitor, partial curve]	
Cc1ccc(S(=O)(=O)N(C)c2ccc(N)cc2)cc1	inactive	
Cc1ccccc1CN1c2ccccc2-c2nc(SCC(=O)NCc3ccccc3)ncc2S1(=O)=O	inconclusive [inhibitor, partial curve, poor fit]	
Cc1cccc(N(CC(=O)NCCSc2ccccn2)S(=O)(=O)c2ccccc2)c1	inconclusive [inhibitor, single point]	
Cc1noc(C)c1CSCC(=O)Nc1cc(C(F)(F)F)ccc1N1CCCCC1	active: 18.4 µM	
C/C(=N\Nc1ccc(F)cc1)c1ccc(N2CCOCC2)c(F)c1	inactive	
Cc1c(C(=O)NCCc2ccc(Cl)cc2)sc2nc3n(c(=O)c12)CCCC3	inconclusive [inhibitor, single point]	
Cc1nc(-c2coc3c(CN(C)C)c(O)ccc3c2=O)cs1	inconclusive [inhibitor, single point]	
COc1ccc(NC(=S)NC(=NS(=O)(=O)c2ccc(Cl)cc2)c2ccccc2)cc1	inconclusive [inhibitor, single point]	
O=C(CCC1CCCCC1)NNC(=O)c1cnccn1	inconclusive [inhibitor, single point]	
COc1cc(C)nc(NC(=O)NC(=O)c2ccc(C(F)(F)F)cc2)n1	inconclusive [inhibitor, partial curve]	
CCOC(=O)N1CCN(C(=O)c2ccc3c(c2)N(Cc2ccc(F)cc2)CCS3)CC1	active: 8.2 µM	
